Reference: PubChem BioAssay AID686978 (National Center for Advancing Translational Sciences (NCATS), 2013)
Where “and” joins values, the source holds several entries; their conditions need not be identical. Equal values may be shown once. Among all 420,000 compounds or so, about 64,000 (15%) were called active. Inconclusive means that the source gave no clear call. Such entries were picked first, then a sample of the others. Calls come from the whole dose curve; as a rule, active = well fitted inhibition curve with a large enough effect; inconclusive = small, poorly fitted or top-dose-only effect; inactive = flat fitted curve, though single readings scatter. Potencies beside an inconclusive call are fits to weak or partial responses and may not hold up.

Assay: qHTS for Inhibitors of human tyrosyl-DNA phosphodiesterase 1 (TDP1): qHTS in cells in absence of CPT; note: nearly all actives have a fitted effect of over 55% in size
Details: DT40 Tdp1-/- hTDP1 cells, no CPT, ATP luminescence, 48 h; series mostly up to 46.2 µM
How it was run: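 Cells were dispensed at 400 per well, compounds added by pin tool, plates incubated ≥48 hr at 37 °C, then CellTiter-Glo added for 30 min at room temperature before luminescence reading. Line: DT40 Tdp1-/- complemented with hTDP1; camptothecin omitted.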
Potency is the fitted concentration of half-maximal effect; tags give direction and shape of the fitted curve.

Structure (SMILES) | Potency
C/C(=N\NC(=O)Cc1ccc(Cl)cc1)c1ccc(F)cc1 | inconclusive: 25.9 µM [inhibitor, single point]
COc1cccc(NC(=O)Nc2nnc([C@H]3C[C@H](O)[C@@H](CO)O3)s2)c1 | inactive
COc1ccccc1OCc1cc(C(=O)N2CC3C[C@@H]4CC2C[C@H](C3)C4)no1 | active: 13 µM
Clc1cccc(CSc2nc3ccncc3[nH]2)c1 | inconclusive: 29.1 µM [inhibitor, single point]
O=C(CSc1nnnn1-c1ccc(Cl)c(C(=O)O)c1)NC(c1ccccc1)c1ccccc1 | inactive
Cc1ccc(-n2nc3c(=O)n(CCCC(=O)NCc4ccc(F)cc4)nc(C)c3c2C)cc1 | inconclusive: 29.1 µM [inhibitor, single point] and inconclusive: 14.6 µM [inhibitor, partial curve]
CC(C)(C)C1CCC(C(=O)Nc2cccnc2)CC1 (centres undefined) | inconclusive: 13 µM [inhibitor, partial curve, poor fit]
CC(C)S(=O)(=O)c1oc(-c2ccc(F)cc2)nc1S(=O)(=O)c1ccc(F)cc1 | active: 0.326 µM
CN1CCN(S(=O)(=O)c2cccc(C(=O)N(C)Cc3c(F)cccc3Cl)c2)CC1 | inconclusive: 23.1 µM [inhibitor, single point]
Cc1ccc(NC(=S)N2CCCC2)cc1C | inconclusive: 16.4 µM [inhibitor, single point]
c1ccc(CN2CCC(Nc3ncnc4sccc34)CC2)cc1 | inactive
CCn1cc(C(=O)N(C)c2cc(C)ccc2OC)c2cc(OC)c(OC)cc2c1=O | inactive
COc1ccc(-n2c(C)cc(C(=O)CN3C(=O)c4ccccc4C3=O)c2C)cc1 | inconclusive: 14.6 µM [inhibitor, partial curve, poor fit]
Cc1cccc(OCC(=O)N(Cc2cccc(Cl)c2)Cc2ccco2)c1C | inactive
Cc1ccsc1CNC(=O)C1(C)CCCN1CC(C)C (centres undefined) | inconclusive: 18.4 µM [inhibitor, partial curve]
C#CCSc1nc(=O)c2cccnc2n1-c1ccc(C)cc1 | active: 5.8 µM
CN(Cc1ccccc1)C(=O)c1ccc(NC(=O)Cc2ccc(NC(=O)C3CCN(C(=O)C4CCC4)CC3)cc2)cc1 | inconclusive: 9.2 µM [inhibitor, partial curve]
O=C(Nc1ccc(N2CCN(C(=O)c3cccs3)CC2)c(Cl)c1)c1ccco1 | active: 14.6 µM
Cc1noc(C)c1S(=O)(=O)NC(=O)C1(C)CCN1C(=O)c1ccccc1CCc1ccccc1 (centres undefined) | inconclusive: 23.1 µM [inhibitor, single point]
